# Data taken from the supplement of paper PMC10369915.
# This is one part of the list. Rule as the data show it: active = 3.2 or more and inactive = the rest. Only a few entries rise above the background.
# What was measured:
# Test in all cases: enrichment score (SH2-bound / input frequency) (ratio); bacterial display of known human phosphotyrosine sites (pTyr-Var adds point mutants) read by sequencing; higher = stronger binding; tyrosines were phosphorylated by kinases first
# Details in all cases: peptide library: pTyr-Var
# SHP2 C-SH2 domain E139D = target: SHP2 C-SH2 domain E139D
# [1] = target: SHP2 C-SH2 domain wild-type
# SHP2 N-SH2 domain L43F = target: SHP2 N-SH2 domain L43F
# SHP2 N-SH2 domain T42A = target: SHP2 N-SH2 domain T42A
# SHP2 N-SH2 domain T52S = target: SHP2 N-SH2 domain T52S
# [2] = target: SHP2 N-SH2 domain wild-type
# 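Also: displayed peptides selected on beads carrying the immobilized SH2 domain, with library peptides lacking any tyrosine serving as negative controls.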
Binder,enrichment score (SHP2 C-SH2 domain E139D),enrichment score [1],enrichment score (SHP2 N-SH2 domain L43F),enrichment score (SHP2 N-SH2 domain T42A),enrichment score (SHP2 N-SH2 domain T52S),enrichment score [2]
EQKKYYNAVKK [SCN5A_Y1495_M1498V],inactive: 1.16,inactive: 1.18,inactive: 1.02,inactive: 0.876,inactive: 1.01,inactive: 0.986
LLINKYGLSAH [SCP2_Y151],inactive: 0.811,inactive: 0.837,inactive: 1.11,inactive: 0.917,inactive: 1.05,inactive: 0.743
SQKRKYIEIDS [SDAD1_Y580],inactive: 0.541,inactive: 0.559,inactive: 0.948,inactive: 1.4,inactive: 0.892,inactive: 0.522
KHTLSYVDVGT [SDHA_Y629],inactive: 0.917,inactive: 0.939,inactive: 1.63,inactive: 2.45,inactive: 2.11,inactive: 1.22
TVSQPYSFIEF [SEC22B_Y110_R108Q],inactive: 1.98,active: 3.46,active: 4.24,active: 6.26,active: 5.3,inactive: 1.49
KKRRSYGNSSD [SELENOK_Y52],inactive: 0.317,inactive: 0.52,inactive: 0.306,inactive: 0.355,inactive: 0.213,inactive: 0.239
AGDGRYEVLFL [SEMA3F_Y478_A474G],inactive: 0.717,inactive: 0.734,inactive: 0.733,inactive: 1.19,inactive: 0.792,inactive: 0.784
DPAFGYEDFTR [SESN2_Y323_T320A],inactive: 0.74,inactive: 0.692,inactive: 0.636,inactive: 0.597,inactive: 0.587,inactive: 0.569
IVGLLYRLLTE [SETX_Y1978],active: 3.92,active: 3.37,active: 3.68,inactive: 2.79,inactive: 3.02,active: 3.38
QTWKTYVRQQQ [SFI1_Y164],inactive: 0.833,inactive: 0.714,inactive: 0.794,inactive: 0.848,inactive: 0.901,inactive: 0.867
DLAAQYTTVGR [SGSH_Y240],inactive: 0.84,inactive: 0.973,inactive: 0.696,inactive: 0.761,inactive: 0.76,inactive: 0.564
NLAAQYTTVGR [SGSH_Y240_D235N],inactive: 0.721,inactive: 1.31,inactive: 0.768,inactive: 1.15,inactive: 0.654,inactive: 0.801
FQNGMYGLHQD [SGSH_Y89_H84Y_YF],inactive: 0.904,inactive: 0.904,inactive: 1.6,inactive: 0.829,inactive: 0.967,inactive: 0.965
HRNGMYGLHQD [SGSH_Y89_Q85R],inactive: 1.32,inactive: 1.15,inactive: 0.85,inactive: 1.08,inactive: 1.05,inactive: 1.02
VVLVSYVPSSQ [SH2B1_Y624],inactive: 2.89,inactive: 2.42,inactive: 2.82,inactive: 2.37,inactive: 2.45,inactive: 2.67
GLDGSYLLRFS [SH2D1A_Y29_D33Y_YF],inactive: 1.21,inactive: 1.1,inactive: 1.1,inactive: 1.2,inactive: 1.19,inactive: 1.2
GLDGSYLPRDS [SH2D1A_Y29_L31P],inactive: 1.12,inactive: 0.67,inactive: 0.628,inactive: 0.653,inactive: 0.632,inactive: 0.585
GLDGSYLLTDS [SH2D1A_Y29_R32T],inactive: 0.685,inactive: 0.651,inactive: 0.771,inactive: 0.638,inactive: 0.707,inactive: 0.606
DAVAVCHGKIS [SH2D1A_Y7_Y7C],inactive: 0.819,inactive: 0.863,inactive: 0.574,inactive: 0.677,inactive: 0.642,inactive: 1.16
